Values of other authors as cited in publication PMC10343355, “Finding the Right Solvent: A Novel Screening Protocol for Identifying Environmentally Friendly and Cost-Effective Options for Benzenesulfonamide” (Molecules, 2023).
Read-outs that look alike come from different tables or passages of the source. Further values from the same series stand in other lists.

Design: method as in Li et al.
Settings: ref Li et al., cited from earlier work

NS(=O)(=O)c1ccccc1 [BSA, Benzenesulfonamide]
log(x1)exp (Acetone, 0.00 °C): -0.93 | log(x1)exp (Acetone, 6.00 °C): -0.91 | log(x1)exp (Acetone, 10.30 °C): -0.89 | log(x1)exp (Acetone, 15.80 °C): -0.86 | log(x1)exp (Acetone, 20.10 °C): -0.84 | log(x1)exp (Acetone, 25.70 °C): -0.81 | log(x1)exp (Acetone, 30.00 °C): -0.78 | log(x1)exp (Acetone, 35.00 °C): -0.75 | log(x1)exp (Acetone, 40.00 °C): -0.73 | log(x1)exp (Acetone, 44.50 °C): -0.70 | log(x1)exp (Acetone, 50.00 °C): -0.66 | log(x1)exp (Cyclohexanone, 0.00 °C): -0.94 | log(x1)exp (Cyclohexanone, 6.00 °C): -0.92 | log(x1)exp (Cyclohexanone, 10.70 °C): -0.90 | log(x1)exp (Cyclohexanone, 16.00 °C): -0.87 | log(x1)exp (Cyclohexanone, 20.60 °C): -0.85 | log(x1)exp (Cyclohexanone, 26.00 °C): -0.82 | log(x1)exp (Cyclohexanone, 30.60 °C): -0.79 | log(x1)exp (Cyclohexanone, 36.00 °C): -0.77 | log(x1)exp (Cyclohexanone, 40.20 °C): -0.74 | log(x1)exp (Cyclohexanone, 46.00 °C): -0.71 | log(x1)exp (Cyclohexanone, 51.30 °C): -0.68 | log(x1)exp (Cyclopentanone, 46.00 °C): -0.64 | log(x1)exp (Cyclopentanone, 51.30 °C): -0.61 | log(x1)exp (Ethanol, 0.00 °C): -1.80 | log(x1)exp (Ethanol, 6.00 °C): -1.74 | log(x1)exp (Ethanol, 10.30 °C): -1.70 | log(x1)exp (Ethanol, 15.80 °C): -1.64 | log(x1)exp (Ethanol, 20.10 °C): -1.58 | log(x1)exp (Ethanol, 25.70 °C): -1.51 | log(x1)exp (Ethanol, 30.00 °C): -1.45 | log(x1)exp (Ethanol, 35.00 °C): -1.39 | log(x1)exp (Ethanol, 40.00 °C): -1.32 | log(x1)exp (Ethanol, 44.50 °C): -1.26 | log(x1)exp (Ethanol, 50.00 °C): -1.20 | log(x1)exp (Isopropanol, 0.00 °C): -2.12 | log(x1)exp (Isopropanol, 6.00 °C): -2.08 | log(x1)exp (Isopropanol, 10.70 °C): -2.02 | log(x1)exp (Isopropanol, 16.00 °C): -1.92 | log(x1)exp (Isopropanol, 20.60 °C): -1.85 | log(x1)exp (Isopropanol, 26.00 °C): -1.76 | log(x1)exp (Isopropanol, 30.60 °C): -1.67 | log(x1)exp (Isopropanol, 36.00 °C): -1.58 | log(x1)exp (Isopropanol, 40.20 °C): -1.52 | log(x1)exp (Isopropanol, 46.00 °C): -1.43 | log(x1)exp (Isopropanol, 51.30 °C): -1.35 | log(x1)exp (Methyl Acetate, 0.00 °C): -1.37 | log(x1)exp (Methyl Acetate, 6.00 °C): -1.33 | log(x1)exp (Methyl Acetate, 10.30 °C): -1.30 | log(x1)exp (Methyl Acetate, 15.80 °C): -1.25 | log(x1)exp (Methyl Acetate, 20.10 °C): -1.22 | log(x1)exp (Methyl Acetate, 25.70 °C): -1.17 | log(x1)exp (Methyl Acetate, 30.00 °C): -1.13 | log(x1)exp (Methyl Acetate, 35.00 °C): -1.08 | log(x1)exp (Methyl Acetate, 40.00 °C): -1.04 | log(x1)exp (Methyl Acetate, 44.50 °C): -0.99 | log(x1)exp (Methyl Acetate, 50.00 °C): -0.95 | log(x1)exp (n-Butanol, 0.00 °C): -2.24 | log(x1)exp (n-Butanol, 6.00 °C): -2.17 | log(x1)exp (n-Butanol, 10.70 °C): -2.10 | log(x1)exp (n-Butanol, 16.00 °C): -2.02 | log(x1)exp (n-Butanol, 20.60 °C): -1.96 | log(x1)exp (n-Butanol, 26.00 °C): -1.87 | log(x1)exp (n-Butanol, 30.60 °C): -1.79 | log(x1)exp (n-Butanol, 36.00 °C): -1.71 | log(x1)exp (n-Butanol, 40.20 °C): -1.65 | log(x1)exp (n-Pentanol, 0.00 °C): -2.32 | log(x1)exp (n-Pentanol, 6.00 °C): -2.27 | log(x1)exp (n-Pentanol, 10.70 °C): -2.21 | log(x1)exp (n-Pentanol, 16.00 °C): -2.14 | log(x1)exp (n-Pentanol, 20.60 °C): -2.05 | log(x1)exp (n-Pentanol, 26.00 °C): -1.95 | log(x1)exp (n-Pentanol, 30.60 °C): -1.88
